What all share (assay): co-IP; HEK293T cells transfected with 3xHA-GPCR and 2xFlag-MRAP1 or MRAP2; GPCR immunoprecipitated with rabbit anti-HA, Protein A/G agarose, overnight at 4°C; MRAP detected by mouse anti-Flag blot
Assay [1] concerns the target T1, Complement component 3a receptor 1 (mouse) (UniProt O09047).
T1 sequence: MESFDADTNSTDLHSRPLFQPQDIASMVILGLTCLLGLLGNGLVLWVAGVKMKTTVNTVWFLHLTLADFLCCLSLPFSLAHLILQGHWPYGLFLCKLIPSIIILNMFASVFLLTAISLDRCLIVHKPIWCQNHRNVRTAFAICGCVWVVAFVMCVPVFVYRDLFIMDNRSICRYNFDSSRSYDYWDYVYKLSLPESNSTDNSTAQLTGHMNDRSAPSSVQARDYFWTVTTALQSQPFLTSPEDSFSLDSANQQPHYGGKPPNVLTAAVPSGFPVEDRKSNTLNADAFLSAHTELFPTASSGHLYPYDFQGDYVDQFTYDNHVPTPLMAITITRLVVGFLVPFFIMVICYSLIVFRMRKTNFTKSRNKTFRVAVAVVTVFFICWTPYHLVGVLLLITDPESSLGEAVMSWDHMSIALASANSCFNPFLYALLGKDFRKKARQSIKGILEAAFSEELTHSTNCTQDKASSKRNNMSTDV

Chains of the proteins cited; added tags and fusions are not shown. Residues count along the entry.
UniProt Q99LE2: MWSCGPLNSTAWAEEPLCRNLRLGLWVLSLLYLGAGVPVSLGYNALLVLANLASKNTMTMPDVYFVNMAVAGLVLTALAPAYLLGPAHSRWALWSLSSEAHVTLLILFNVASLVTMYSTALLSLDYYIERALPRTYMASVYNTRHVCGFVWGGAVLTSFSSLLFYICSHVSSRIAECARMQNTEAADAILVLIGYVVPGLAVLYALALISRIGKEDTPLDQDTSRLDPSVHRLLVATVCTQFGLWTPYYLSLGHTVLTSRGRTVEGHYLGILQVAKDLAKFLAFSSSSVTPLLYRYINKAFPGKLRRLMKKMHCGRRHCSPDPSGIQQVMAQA
UniProt Q61121: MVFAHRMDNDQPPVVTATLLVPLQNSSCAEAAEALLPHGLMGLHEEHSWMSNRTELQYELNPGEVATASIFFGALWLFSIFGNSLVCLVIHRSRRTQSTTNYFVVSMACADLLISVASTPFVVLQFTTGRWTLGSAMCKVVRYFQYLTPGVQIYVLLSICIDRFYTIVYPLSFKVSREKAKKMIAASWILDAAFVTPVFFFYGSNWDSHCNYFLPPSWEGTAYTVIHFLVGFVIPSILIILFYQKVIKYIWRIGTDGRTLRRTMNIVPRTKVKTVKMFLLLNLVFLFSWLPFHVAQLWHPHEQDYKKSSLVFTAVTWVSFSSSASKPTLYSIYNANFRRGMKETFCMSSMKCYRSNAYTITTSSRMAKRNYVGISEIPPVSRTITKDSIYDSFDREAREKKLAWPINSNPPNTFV
UniProt P30731, residues 18-423: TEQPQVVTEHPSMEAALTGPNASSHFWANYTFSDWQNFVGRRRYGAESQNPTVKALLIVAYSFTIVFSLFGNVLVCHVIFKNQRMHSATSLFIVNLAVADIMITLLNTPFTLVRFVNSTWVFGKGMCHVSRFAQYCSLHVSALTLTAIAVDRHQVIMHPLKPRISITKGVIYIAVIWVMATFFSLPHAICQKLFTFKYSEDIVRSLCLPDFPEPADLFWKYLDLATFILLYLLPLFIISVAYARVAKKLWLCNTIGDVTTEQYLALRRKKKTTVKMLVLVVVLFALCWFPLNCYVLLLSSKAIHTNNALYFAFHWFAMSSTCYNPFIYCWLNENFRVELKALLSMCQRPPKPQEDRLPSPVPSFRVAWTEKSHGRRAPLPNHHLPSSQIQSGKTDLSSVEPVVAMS
UniProt P35377: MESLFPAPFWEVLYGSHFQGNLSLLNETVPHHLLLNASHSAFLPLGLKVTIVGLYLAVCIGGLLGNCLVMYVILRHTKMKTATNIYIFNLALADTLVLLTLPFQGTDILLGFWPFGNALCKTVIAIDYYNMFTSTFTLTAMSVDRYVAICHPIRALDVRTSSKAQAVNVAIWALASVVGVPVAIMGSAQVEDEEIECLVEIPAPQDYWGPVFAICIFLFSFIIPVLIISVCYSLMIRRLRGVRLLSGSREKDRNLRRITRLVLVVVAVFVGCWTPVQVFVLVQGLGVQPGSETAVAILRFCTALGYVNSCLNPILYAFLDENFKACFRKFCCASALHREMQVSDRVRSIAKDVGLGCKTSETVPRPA
UniProt Q62053: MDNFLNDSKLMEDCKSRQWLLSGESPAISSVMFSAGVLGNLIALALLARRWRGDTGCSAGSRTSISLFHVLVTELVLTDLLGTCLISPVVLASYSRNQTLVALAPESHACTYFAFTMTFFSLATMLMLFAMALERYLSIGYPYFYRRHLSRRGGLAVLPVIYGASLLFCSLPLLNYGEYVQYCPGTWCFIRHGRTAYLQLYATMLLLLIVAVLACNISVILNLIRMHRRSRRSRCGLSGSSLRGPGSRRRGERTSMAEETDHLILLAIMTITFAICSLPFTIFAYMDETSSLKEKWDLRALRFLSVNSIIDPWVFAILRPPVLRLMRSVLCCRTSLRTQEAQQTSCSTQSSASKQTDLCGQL
UniProt P30873: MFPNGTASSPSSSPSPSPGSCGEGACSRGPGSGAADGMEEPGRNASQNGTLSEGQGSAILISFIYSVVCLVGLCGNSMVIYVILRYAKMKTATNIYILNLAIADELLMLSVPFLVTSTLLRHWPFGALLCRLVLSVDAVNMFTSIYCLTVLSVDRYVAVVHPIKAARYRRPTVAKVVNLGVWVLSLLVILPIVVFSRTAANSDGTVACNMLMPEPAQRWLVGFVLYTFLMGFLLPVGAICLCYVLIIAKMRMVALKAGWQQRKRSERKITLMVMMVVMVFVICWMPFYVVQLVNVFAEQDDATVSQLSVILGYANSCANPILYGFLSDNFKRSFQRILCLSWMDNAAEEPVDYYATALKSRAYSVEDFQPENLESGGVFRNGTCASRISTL

Assay [2] has as its target G protein‐coupled receptor 146 (mouse) (UniProt Q99LE2).
Assay [3] has as its target G protein‐coupled receptor 19 (mouse) (UniProt Q61121).
The target of assay [4] is G protein‐coupled receptor 83 (mouse) (UniProt P30731).
For assay [5], the target named is Opioid receptor‐like 1 (mouse) (UniProt P35377).
Assay [6] has as its target T2, Prolactin releasing hormone receptor (mouse) (UniProt Q6VMN6).
T2 sequence: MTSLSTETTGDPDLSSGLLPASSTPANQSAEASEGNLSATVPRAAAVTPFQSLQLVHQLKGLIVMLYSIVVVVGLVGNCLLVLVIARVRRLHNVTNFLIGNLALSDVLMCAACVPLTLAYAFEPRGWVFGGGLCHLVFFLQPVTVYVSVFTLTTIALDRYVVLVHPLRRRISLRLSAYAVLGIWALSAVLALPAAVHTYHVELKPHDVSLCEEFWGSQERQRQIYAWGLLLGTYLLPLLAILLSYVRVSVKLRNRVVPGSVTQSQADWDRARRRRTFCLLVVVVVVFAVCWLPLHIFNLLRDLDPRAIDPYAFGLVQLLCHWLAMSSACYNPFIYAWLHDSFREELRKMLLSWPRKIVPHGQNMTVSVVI

Assay [7] has as its target T3, Prostaglandin E receptor 1 (subtype EP1) (mouse) (UniProt P35375).
T3 sequence: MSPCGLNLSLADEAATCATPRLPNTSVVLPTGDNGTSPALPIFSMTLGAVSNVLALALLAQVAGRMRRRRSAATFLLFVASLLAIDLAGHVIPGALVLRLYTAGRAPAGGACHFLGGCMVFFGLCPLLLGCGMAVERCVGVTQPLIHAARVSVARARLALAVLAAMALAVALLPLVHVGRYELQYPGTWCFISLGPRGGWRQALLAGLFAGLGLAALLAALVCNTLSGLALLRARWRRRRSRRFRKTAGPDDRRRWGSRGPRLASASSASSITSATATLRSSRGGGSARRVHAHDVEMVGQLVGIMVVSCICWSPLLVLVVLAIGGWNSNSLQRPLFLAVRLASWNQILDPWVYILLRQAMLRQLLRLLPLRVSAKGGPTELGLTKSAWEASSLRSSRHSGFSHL

Assay [8] deals with Prostaglandin E receptor 2 (subtype EP2) (mouse) (UniProt Q62053).
In assay [9] the target is Somatostatin receptor 1 (mouse) (UniProt P30873).
The target in assay [10] is T4, Thyrotropin releasing hormone receptor (mouse) (UniProt P21761).
T4 sequence: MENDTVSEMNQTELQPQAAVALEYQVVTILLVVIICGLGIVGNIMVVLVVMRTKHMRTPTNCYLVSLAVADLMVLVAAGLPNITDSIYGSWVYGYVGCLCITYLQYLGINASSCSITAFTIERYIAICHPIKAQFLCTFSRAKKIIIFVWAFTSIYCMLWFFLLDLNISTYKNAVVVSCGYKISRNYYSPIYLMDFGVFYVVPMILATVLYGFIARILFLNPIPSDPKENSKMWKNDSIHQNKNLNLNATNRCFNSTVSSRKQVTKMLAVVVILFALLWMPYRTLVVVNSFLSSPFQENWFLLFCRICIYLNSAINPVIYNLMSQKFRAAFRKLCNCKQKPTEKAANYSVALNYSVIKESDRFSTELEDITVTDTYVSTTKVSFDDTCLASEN

No constants are given. Whether binding was seen depends on the method and setting. In cells and extracts the contact can be indirect. Some results given as binding are weak or reduced against the parent protein; the word gives no strength. For some assays here: Tags and fused reporters may be left off the sequences shown.

B1: melanocortin receptor accessory protein MRAP1 (protein, UniProt Q9D159 1-127)
chain: MANGTDASVPLTSYEYYLDYIDLIPVDEKKLKANKHSIVIALWLSLATFVVLLFLILLYMSWSGSPQMRHSPQPQPICSWTHSFNLPLCLRRASLQTTEEPGRRAGTDQWLTQQSPSASAPGPLALP
B1: the binding entry was “no binding” in assay [1]; “binds” in assay [2]; “no binding” in [3]; “binds” in assay [4]; “binds” in assay [5]; “binds” in assay [6]. Also, the binding result was “no binding” in assay [7], “binds” in assay [8], “binds” in [9] and “no binding” in assay [10].

B2: melanocortin receptor accessory protein MRAP2 (protein, UniProt D3Z1Q2 1-207)
chain: MEMSAQRLASNRTSPQSPSNSDYTWEYEYYEIGPVSFEGLKAHKYSIVIGFWVGLAVFVIFMFFVLTLLTKTGAPHQDNAESSERRFRMNSFVSDFGKPLESDKVFSRQGNEESRSLFHCYINEVEHLDRVKVCHQTTAIDSDVHLQEASRSSGRPEEELARFMKFDIPNFVNTEQSSFGEDDLLISEAPVLLENKPVSQTSRIDLD
As to B2, the binding result in assay [1], in assay [2], in assay [3], in [4], in assay [5] and in assay [6] was “binds” throughout. Moreover, the binding result in [7] is “binds”; in [8], “binds”; in assay [9] it was “no binding”; in assay [10] it was “binds”.
